pEC50, pIC50: −log10 of the molar value. Where “and” joins values, the source holds several entries; their conditions need not be identical. Identical values can stand only once. Like-named read-outs stand apart in the source and are kept apart here.
Experiments:
[1] = tested on: VSV-SARS-CoV-2-Sdel18 pseudovirus; assay: microbe, parasite or virus in culture; assay type: cell-based
[2] = tested on: SARS-CoV-2 BetaCoV/Shenzhen/SZTH-003/2020 strain; assay: microbe, parasite or virus in culture; assay type: cell-based; details: Severe acute respiratory syndrome coronavirus 2, Vero, 120 h
[3] = tested on: BHK21-hACE2 cells
[4] = tested on: EBOV-76; details: strain EBOV-76; ref Johansen et al., 2013; cited from earlier work

`CCN(CC)CCOc1ccc(C(=C(Cl)c2ccccc2)c2ccccc2)cc1` [Clomiphene (citrate)] gave a pIC50 ([1]; Pseudovirus, read-out: Co-treatment IC50) of 5.02, an IC90 ([1]; Pseudovirus, read-out: Pre-treatment IC90) of 10.2 µM and a pIC50 [2] of 5.01.
In the case of `CN1CCC[C@@H]1CCO[C@](C)(c1ccccc1)c1ccc(Cl)cc1.O=C(O)/C=C/C(=O)O` [Clemastine (fumarate)], the “cytotoxicity compared with the other selected drugs” value [3] was “more serious cytotoxic than other drugs”, the pIC50 ([1]; read-out: IC50) was 5.08 and the IC90 ([1]; read-out: IC90) was < 50 µM and 29.9 µM.
In the case of `CCN(CC)CCOc1ccc(C(=C(Cl)c2ccccc2)c2ccccc2)cc1` [Clomiphene], the pEC50 [4] is given as 5.42.
With `CCCCc1oc2ccccc2c1C(=O)c1cc(I)c(OCCN(CC)CC)c(I)c1.Cl` [Amiodarone (hydrochloride)] the pIC50 ([1]; read-out: IC50) was ~5.35 and 5.35.

Source: paper PMC7892437 (Frontiers in Pharmacology, 2021)
